Results as given in US20260008746A1, “CATIONIC LIPID COMPOUND WITH HIGH EFFICIENCY, LOW TOXICITY AND STABLE EXPRESSION, AND COMPOSITION COMPRISNG SAME” (HANGZHOU TIANLONG PHARMACEUTICAL CO., LTD, priority 2023, published 2026).
Several values for one entry are separate records, joined by “and”; a condition that tells them apart may be missing. Equal values may be shown once. At least one read-out could not be matched to a standard name with certainty.

System: BALB/C mice
Test: In vivo imaging of Fluc-mRNA expression in mice delivered by LNP formulations
Details: LNP containing 10 pg Fluc-mRNA, intramuscular, female BALB/C mice, 48 h
Protocol: The LNP formulation containing […] Fluc-mRNA was injected intramuscularly into female BALB/C mice aged 4-6 weeks old and weighed 17-19 g, and the mice were intraperitoneally injected with fluorescent imaging substrate at specific time points after administration (6h, 24 h, 48h and 7d), where the mice were allowed to move freely for 5 minutes, and then the average radiation intensity (corresponding to fluorescence expression intensity) of the protein expression of the mRNA carried by the LNP in the mice was detected by the IVIS Spectrum small animal in vivo imaging device. The test results are shown in Tables 11 to 14 and FIGS. 12 to 14.

CCCCCCCCCCCCC(O)CN(C)CCCCCC(=O)OCC(CCCCCC)CCCCCCCC (stereo not shown) [HHMA, reference compound]
average radiation intensity, 48 h: 30832 and 30852
